Inconclusive results, whose numbers are uncertain, are shown with a selection of clear calls. Where the call is inconclusive, the potency comes from a doubtful curve fit. Active and inactive are the calls of the source. The call rests on the fitted dose curve; in most records, active means well fitted activation curve with a large enough effect in the repeat runs; inconclusive means weak or mixed curves; inactive means no such curve, though single readings can be large or run the other way.
Biological target: Aryl hydrocarbon receptor (Homo sapiens) (UniProt P35869)
Experiment: qHTS assay to identify small molecule that activate the aryl hydrocarbon receptor (AhR) signaling pathway (AID 743085); further: nearly all actives have a fitted effect of over 15% in size;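 on activation: HG2L7.5c1 human HepG2 liver cells with stably integrated DRE-driven firefly reporter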
Settings: HepG2 AhR-luc (HG2L7.5c1), luciferase, 24 h; series mostly up to 70.3 µM
Description: U.S. Tox21 Program National Center for Advancing Translational Sciences [NCATS] NIH Chemical Genomics Center [NCGC] U.S. Environmental Protection Agency [EPA] National Institutes of Environmental Health Sciences [NIEHS] National Toxicology Program [NTP] U.S. Food and Drug Administration [FDA] Tox21 Assay overview: The Aryl hydrocarbon Receptor (AhR), a member of the family of basic helix-loop-helix transcription factors, is crucial to adaptive responses to environmental changes. AhR mediates cellular responses to environmental pollutants such as aromatic hydrocarbons through induction of phase I and II enzymes but also interacts with other nuclear receptor signaling pathways. A cell based HepG2-AhR-luc assay (HG2L7.5c1 cell line, developed by Dr. Michael S. Denison, University of California at Davis, was used to assess the activation of AhR. HepG2 (human hepatocellular carcinoma) cells were stably transfected with an Ah receptor-responsive firefly luciferase reporter gene plasmid containing 20 dioxin responsive elements and luciferase reporter gene. Increased luciferase activity can be used to identify the compounds that induce AhR activation.
Tox21 Assay Protocol Summary: 4000 cells in 5 uL/well were dispensed into white wall/solid bottom 1536-well plates using a Multidrop Combi (Thermo Fisher Scientific Inc., Waltham, MA) dispenser. After the assay plates were incubated at 37C for 5 h, 23 nL of compound or DMSO vehicle was transferred to the assay plates by a pintool station (Kalypsys, San Diego, CA). The plates were incubated at 37C for 24 hr. After 1 ul/well of CellTiter-Fluor reagent (Promega, Madison, WI) was added into the assay plates using a Flying Reagent Dispenser (FRD) (Aurora Discovery, CA), the assay plates were incubated at 37C for 30 min. The fluorescence intensity in the plates was measured using a ViewLux plate reader (PerkinElmer, Shelton, CT), followed by the addition of 4 uL of ONE-Glo Luciferase Assay reagent (Promega) using an FRD (Aurora Discovery). After the assay plates were incubated at room temperature for 30 min, luminescence intensity was measured using a ViewLux plate reader (Perkin Elmer).
Potency means the concentration at half of the fitted maximal effect; tags describe the fitted curve by direction and shape.

UniProt P35869, sequence (P35869 whole entry, looked up): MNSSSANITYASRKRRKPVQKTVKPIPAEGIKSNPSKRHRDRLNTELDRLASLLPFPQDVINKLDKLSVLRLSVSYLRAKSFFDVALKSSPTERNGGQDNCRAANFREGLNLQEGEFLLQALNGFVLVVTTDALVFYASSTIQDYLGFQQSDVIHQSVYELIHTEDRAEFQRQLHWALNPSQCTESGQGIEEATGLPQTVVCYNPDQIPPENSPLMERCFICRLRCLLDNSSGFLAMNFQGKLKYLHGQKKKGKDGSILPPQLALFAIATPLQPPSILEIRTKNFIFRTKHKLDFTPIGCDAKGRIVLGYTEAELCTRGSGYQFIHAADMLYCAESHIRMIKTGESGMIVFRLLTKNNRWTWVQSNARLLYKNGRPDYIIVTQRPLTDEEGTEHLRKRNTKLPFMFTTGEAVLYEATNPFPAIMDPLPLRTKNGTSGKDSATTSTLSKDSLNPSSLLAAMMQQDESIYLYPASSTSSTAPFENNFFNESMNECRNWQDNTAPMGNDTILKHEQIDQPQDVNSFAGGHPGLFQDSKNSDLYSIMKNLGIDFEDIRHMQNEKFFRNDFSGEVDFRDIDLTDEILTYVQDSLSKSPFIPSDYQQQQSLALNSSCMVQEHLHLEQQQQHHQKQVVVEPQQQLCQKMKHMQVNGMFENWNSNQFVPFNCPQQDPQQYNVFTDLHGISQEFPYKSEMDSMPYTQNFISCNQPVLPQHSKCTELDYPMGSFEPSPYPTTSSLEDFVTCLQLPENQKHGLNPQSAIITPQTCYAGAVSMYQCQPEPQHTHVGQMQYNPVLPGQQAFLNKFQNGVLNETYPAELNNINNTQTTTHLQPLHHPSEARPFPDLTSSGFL

Row | SMILES | Potency
1 | CC[C@@]1(O)C(=O)OCc2c1cc1n(c2=O)Cc2cc3c(CN(C)C)c(O)ccc3nc2-1 | inconclusive: 21.1 µM [activator, partial curve, poor fit]
2 | COc1cccc2c1C(=O)c1c(O)c3c(c(O)c1C2=O)C[C@@](O)(C(=O)CO)C[C@@H]3O[C@H]1C[C@H](N)[C@H](O)[C@H](C)O1 | inconclusive: 15 µM [activator, partial curve, poor fit]
3 | COC(=O)C1=C(C)NC(C)=C(C(=O)O[C@@H]2CCCN(Cc3ccccc3)C2)[C@@H]1c1cccc([N+](=O)[O-])c1 | inconclusive: 7.5 µM [activator, partial curve]
4 | CC(C)C(C)(C)C(C)(C)C(C)(C)S | inconclusive: 61.1 µM [activator, partial curve]
5 | OCc1c[nH]c2ccccc12 | active: 5.14 µM
6 | COC(=O)[C@@H](N)Cc1ccc(O)c(O)c1 | active: 26.6 µM
7 | CC(C)NCC(O)COc1cccc2[nH]ccc12 (stereo not given) | inconclusive: 29.8 µM [activator]
8 | Cc1[nH]cnc1CN1CCc2c(c3ccccc3n2C)C1=O | inconclusive: 16.8 µM [activator, partial curve]
9 | CCCN(CCc1cccs1)[C@H]1CCc2c(O)cccc2C1 | inconclusive: 33.5 µM [activator, partial curve, poor fit]
10 | Nc1ccccc1Nc1ccccc1 | active: 54.6 µM
11 | Cc1c(-c2cccnc2)c2ccccc2n1CCCCC(=O)O | inconclusive: 54.5 µM [activator, partial curve]
12 | C[C@@H]1C[C@H]2[C@@H]3CCC4=CC(=O)C=C[C@]4(C)[C@@]3(F)[C@@H](O)C[C@]2(C)[C@@]1(O)C(=O)CO | inactive
13 | CC(=O)OCC(=O)[C@@]1(O)[C@H](OC(C)=O)C[C@H]2[C@@H]3CCC4=CC(=O)C=C[C@]4(C)[C@@]3(F)[C@@H](O)C[C@@]21C | inactive
14 | CCCCN1C(=O)c2ccccc2C1=O | inactive
15 | O=C1NC2CCCCN2C12CCN(CCCN1c3ccccc3CCc3ccc(Cl)cc31)CC2 (stereo not given) | active: 13.3 µM
16 | O=C(O)C1(C(=O)Nc2ccc(Cl)cc2Cl)CC1 | inconclusive: 34.4 µM [activator, partial curve, poor fit]
17 | C=C(C)C(=O)OCC(O)COc1ccc(C(C)(C)c2ccc(OCC(O)COC(=O)C(=C)C)cc2)cc1 (stereo not given) | inconclusive: 54.5 µM [activator, partial curve, poor fit]
18 | COC(C)COC(C)COC(C)CO (stereo not given) | inconclusive: 68.7 µM [activator, single point]
19 | CCCCCCCCCCC[C@@H](C[C@@H]1OC(=O)[C@H]1CCCCCC)OC(=O)[C@H](CC(C)C)NC=O | inactive
20 | N#CSc1ccc(N)c([N+](=O)[O-])c1 | inconclusive: 30.8 µM [activator, partial curve]

Row | SMILES | Potency
21 | CCOC(=O)c1c(N)sc2c1CCN(Cc1ccccc1)C2 | inconclusive: 11.9 µM [activator, full curve, poor fit]
22 | CC(C)Nc1ccc(NC(C)C)c2c1C(=O)c1ccccc1C2=O | inconclusive: 12.7 µM [activator, partial curve]
23 | COC(=O)c1ccc(C(=O)OC)c(C(=O)OC)c1 | inactive
24 | COc1ccc(/C=C/c2cc(OC)cc(=O)o2)cc1 | inconclusive: 0.992 µM [activator, single point]
25 | CCC(C)N(C)C(=O)c1cc2ccccc2c(-c2ccccc2Cl)n1 (stereo not given) | inactive
26 | c1c[nH]cn1 | inactive
27 | CCCCOc1ccc(C(=O)CCN2CCCCC2)cc1 | inconclusive: 14.3 µM [activator, partial curve, poor fit]
28 | CCOc1ccc(N)c([N+](=O)[O-])c1 | inactive
29 | COC(=O)C1=C(C)NC(C)=C(C(=O)OCCCN2CCC(c3ccccc3)(c3ccccc3)CC2)C1c1cccc([N+](=O)[O-])c1 (stereo not given) | inconclusive: 6.68 µM [activator, full curve, poor fit]
30 | CCC1OCC(COc2ccc(Oc3ccccc3)cc2)O1 (stereo not given) | inconclusive: 30.6 µM [activator, partial curve, poor fit]
31 | Cc1ccc2oc(=O)ccc2c1 | inconclusive: 7.06 µM [activator, full curve, poor fit]
32 | Clc1cc(Cl)c(Cl)nc1Cl | inconclusive: 24.4 µM [activator, single point]
33 | CCn1c2ccccc2c2cc([N+](=O)[O-])ccc21 | inconclusive: 27.3 µM [activator, partial curve, poor fit]
34 | C=CCOC(=O)/C=C\C(=O)OCC=C | inactive
35 | O=C(O)c1ccccc1OP(=O)(O)O | inactive
36 | O=C(c1ccccc1)c1cc(Cl)ccc1O | inconclusive: 23.1 µM [activator, partial curve, poor fit]
37 | Cc1ccccc1Cl | inconclusive: 69 µM [activator, partial curve, poor fit]
38 | CCCCCCCCCCCC[N+](C)(C)C | inactive
39 | C[C@@H]1C[C@H]2[C@@H]3CCC4=CC(=O)C=C[C@]4(C)[C@@]3(F)[C@@H](O)C[C@]2(C)[C@@]1(O)C(=O)COP(=O)(O)O | inactive
40 | O=c1c(O)c(-c2ccc(O)c(O)c2)oc2cc(O)cc(O)c12 | active: 61.1 µM [middle of 4 runs]
